These results are taken from publication PMC4336329 (PLoS ONE, 2015).

SMILES strings stand for the structures. The campaign covered roughly 310,000 compounds. About 14,000 (4.5%) showed an effect of 50% or more. The effect is printed as a negative number. This is one part of the list.
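Also: peak tail current of the secondary pulse compared with the same well before compound.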

This assay deals with human ether-à-go-go-related gene (hERG) potassium channel (human, UniProt Q12809). As to the kind of experiment: primary screen, population patch clamp on CHO cells stably expressing hERG.
Chain of human ether-à-go-go-related gene (hERG) potassium channel (Q12809 whole entry, looked up): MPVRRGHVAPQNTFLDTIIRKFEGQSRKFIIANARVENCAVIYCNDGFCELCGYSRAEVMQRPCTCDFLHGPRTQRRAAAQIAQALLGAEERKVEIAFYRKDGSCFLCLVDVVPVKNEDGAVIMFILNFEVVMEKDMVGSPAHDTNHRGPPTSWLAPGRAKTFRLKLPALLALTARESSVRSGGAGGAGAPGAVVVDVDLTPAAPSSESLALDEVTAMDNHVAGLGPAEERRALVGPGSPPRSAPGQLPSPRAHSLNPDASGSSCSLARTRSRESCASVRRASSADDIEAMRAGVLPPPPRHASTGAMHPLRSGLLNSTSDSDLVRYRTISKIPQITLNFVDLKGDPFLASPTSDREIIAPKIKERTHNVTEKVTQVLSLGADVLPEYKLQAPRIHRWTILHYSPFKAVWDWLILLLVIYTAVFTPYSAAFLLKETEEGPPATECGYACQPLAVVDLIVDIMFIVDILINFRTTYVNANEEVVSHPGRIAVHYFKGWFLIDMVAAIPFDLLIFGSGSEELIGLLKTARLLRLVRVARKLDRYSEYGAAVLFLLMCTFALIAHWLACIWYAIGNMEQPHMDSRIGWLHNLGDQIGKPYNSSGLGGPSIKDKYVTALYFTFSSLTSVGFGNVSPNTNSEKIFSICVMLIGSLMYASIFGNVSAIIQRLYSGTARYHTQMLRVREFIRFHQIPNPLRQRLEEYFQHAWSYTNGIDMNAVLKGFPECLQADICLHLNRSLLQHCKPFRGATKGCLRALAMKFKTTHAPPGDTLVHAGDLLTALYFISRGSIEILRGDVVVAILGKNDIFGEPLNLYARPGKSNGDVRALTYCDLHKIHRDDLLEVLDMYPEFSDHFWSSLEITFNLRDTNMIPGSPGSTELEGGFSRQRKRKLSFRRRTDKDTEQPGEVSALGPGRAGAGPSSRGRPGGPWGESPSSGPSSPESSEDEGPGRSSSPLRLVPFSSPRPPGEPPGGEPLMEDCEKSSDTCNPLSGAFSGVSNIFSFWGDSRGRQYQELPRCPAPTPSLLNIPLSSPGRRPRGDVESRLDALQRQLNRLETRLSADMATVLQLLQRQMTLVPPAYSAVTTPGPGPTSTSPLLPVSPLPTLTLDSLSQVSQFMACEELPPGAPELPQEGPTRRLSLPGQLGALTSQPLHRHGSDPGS
Turning to `CCCCNC(=S)NNC(=O)c1cc(C2CC2)nc2ccccc12`, the “hERG current change (%, negative = inhibition) at 10uM” value stood at 8.3%.

With `O=C(Nc1nnc(-c2ccco2)o1)c1ccc(S(=O)(=O)N2CCOCC2)cc1`, the “hERG current change (%, negative = inhibition) at 10uM” value is listed as 17.6%. With `O=C(O)c1ccc2cccnc2n1` the figure was 30.9%.

Regarding `C=CCn1c(O)c(C(CC)=NC(C)c2ccccc2)c(=O)[nH]c1=O` (stereo not shown), the “hERG current change (%, negative = inhibition) at 10uM” value is recorded as -14.8%. Regarding `C/C(=C1/C(=O)N(c2ccc([N+](=O)[O-])cc2)N=C1c1ccccc1)N(C)C`, the “hERG current change (%, negative = inhibition) at 10uM” value is listed as -13.9%.

For `CN(C)/C=C1\C(=O)NN=C1c1ccccc1`, the “hERG current change (%, negative = inhibition) at 10uM” value is -2.22%. With `CC(Oc1cc2oc(=O)c3c(c2cc1Cl)CCC3)C(=O)NC1CC(C)(C)NC(C)(C)C1` (stereo not shown) the figure was -5.69%; with `COc1cc(C(=O)NCc2cn3cccc(C)c3n2)cc(OC)c1OC`, -9.39%. With `O=C(CN1CCOc2ccccc21)NC1CCCCCCC1` the figure was -1.87%. With `COc1ccc(C(=O)Nc2cc(-c3ccccc3)nn2-c2ccccc2F)cc1` the figure was -7.4%. Turning to `O=C(CN1C(=O)c2ccc([N+](=O)[O-])cc2C1=O)Nc1cc(S(=O)(=O)N2CCOCC2)ccc1Cl`, the “hERG current change (%, negative = inhibition) at 10uM” value is given as -60.8%. For `CCOC(=O)C1(Cc2cccc(OC)c2)CCCN(Cc2c(C)nn(C(C)C)c2C)C1` (stereo not shown), the “hERG current change (%, negative = inhibition) at 10uM” value is -10.1%.

With `C=CCc1cccc2cc(C(=O)NNC(=O)c3ccncc3)c(=O)oc12`, the “hERG current change (%, negative = inhibition) at 10uM” value turned out to be 9.91%. The value for `COc1ccccc1CN1CN(S(=O)(=O)c2ccccc2)c2nc3ccccc3nc21` was 8.16%. The value for `CC(Sc1nc2ccccc2c(=O)n1Cc1ccco1)C(=O)c1ccccc1` (stereo not shown) was -53.9%; that for `O=C1CC(N2CCN(c3ccccc3O)CC2)C(=O)N1Cc1ccccc1` (stereo not shown) was 5.48%; that for `CCOC(=O)c1c(NC(=O)COC(=O)Cn2cnc3c2c(=O)n(C)c(=O)n3C)sc(C)c1CC` was 1.03%. For the compound `Nc1ccc2nc(-c3cccs3)[nH]c2c1`, the “hERG current change (%, negative = inhibition) at 10uM” value is -3.71%. With `CCOC(=O)C(CC)Sc1ccc2nnc(CCNS(=O)(=O)c3ccccc3)n2n1` (stereo not shown) the figure was -32.2%. For the compound `CC(=O)c1ccc(NC(=S)N2C(C)CCCC2C)cc1` (stereo not shown), the “hERG current change (%, negative = inhibition) at 10uM” value worked out at 2.08%. The value for `CCC(c1ccc(C)cc1)N1C(=O)C2C3CCC(O3)C2C1=O` (stereo not shown) was 10.2%. With `Cc1cccc(-c2nnc3n2N=C(c2ccc(Br)cc2)CS3)c1` the figure was -9.44%; with `CC1CCCCN1C(C(=O)O)c1ccccc1.Cl` (stereo not shown), 18.9%. The value for `COc1cc(/C=N/NS(=O)(=O)c2ccc(C)c([N+](=O)[O-])c2)ccc1O` was 10.9%; that for `O=C(CN(C(=O)c1csnn1)c1ccccc1Cl)NCCc1ccccc1` was -3.87%; that for `CCOc1ccc(N2C(=O)C3C(c4ccc(O)cc4)NC(CCSC)(C(=O)OC)C3C2=O)cc1` (stereo not shown) was -12.3%. In the case of `COc1ccc(C(=O)Nc2ccnn2C2CCN(Cc3ccc4nonc4c3)CC2)cc1`, the “hERG current change (%, negative = inhibition) at 10uM” value is -43.1%. For the compound `Cc1onc(-c2ccccc2)c1C(=O)OCc1nnc(-c2ccccc2)o1`, the “hERG current change (%, negative = inhibition) at 10uM” value is -15.6%. The value for `Cc1ccc(S(=O)(=O)N2CCOCC2)cc1C(=O)Nc1ccncc1` was -35.2%; that for `CC(=O)OCC1=C(C(=O)O)N2C(=O)C(NC(=O)c3ccc(COc4cccc(Cl)c4Cl)o3)C2SC1` (stereo not shown) was 14.4%; that for `Cc1cccc(C(=O)Nc2ccc(C(=O)c3ccccc3)cc2)c1` was -1.47%. In the case of `COC(=O)Cc1cc(=O)oc2cc(OC)ccc12`, the “hERG current change (%, negative = inhibition) at 10uM” value was -0.331%. With `Cc1cccc(OCc2nnc(SCC(=O)N3c4ccccc4CCc4ccccc43)o2)c1` the figure was -0.133%.

Consider `CSCCC(NS(=O)(=O)c1ccc(C)cc1)C(=O)NCCc1c[nH]c2ccccc12` (stereo not shown), for which the “hERG current change (%, negative = inhibition) at 10uM” value is on record as -13.9%. With `CSc1nc(N(C)NC(=O)c2ccc(Cl)cc2)c2ccccc2n1` the figure was 2.16%; with `O=S(=O)(/N=C(/c1ccc(Cl)cc1)N1CCOCC1)c1ccc(Cl)cc1`, -23%. The value for `Fc1ccc(-c2nnc(CN3CCN(c4ncc(C(F)(F)F)cc4Cl)CC3)o2)cc1` was -45.4%; that for `Cc1ccsc1/C=C(\C#N)C(=O)NCc1cccnc1` was -27.5%; that for `O=C(NCCCN1CCCC1=O)NC1CCCCC1` was 10.9%. For `CCNc1nc(OCCNS(=O)(=O)c2cc(C)ccc2C)nc(N(C)C)n1`, the “hERG current change (%, negative = inhibition) at 10uM” value is -12.1%. With `CC(NC(=O)c1cccc(S(=O)(=O)N2CCN(C)CC2)c1)c1ccc(Cl)cc1Cl` (stereo not shown) the figure was -42.5%; with `COc1ccc(CCNc2nc(C)nc3c2oc2ccccc23)cc1OC`, -19.3%; with `Cc1ccc(-c2csc(N(CCO)CCCn3c(C(F)(F)F)nc4ccccc43)n2)cc1`, 17.6%.

Regarding `CCOC(=O)Nc1ccc2c(c1)N(C(=O)CCN(C)C)c1ccccc1CC2`, the “hERG current change (%, negative = inhibition) at 10uM” value is reported as -40.7%. With `COC(=O)C1CCN(C(=O)COC(=O)c2cc(-c3cccs3)nn2-c2ccccc2)CC1` the figure was -37.6%; with `O=C(CN1C(=O)c2ccccc2S1(=O)=O)N1CCCCC1`, 9.53%; with `O=C(Nc1ccccc1C(=O)N1CCN(CCO)CC1)c1cccc([N+](=O)[O-])c1`, 7%. As to `C=CCn1c(SCC(=O)N2N=C(c3ccco3)CC2c2ccco2)nnc1-c1ccncc1` (stereo not shown), the “hERG current change (%, negative = inhibition) at 10uM” value was -41.1%. The value for `O=C(CCC1N=C2c3ccccc3N=C(SCc3ccc(Cl)cc3)N2C1=O)NCc1ccco1` (stereo not shown) was -52%; that for `CCOC(=O)N1CCN(C(=O)C2CCCN(S(=O)(=O)c3c(C)cc(C)cc3C)C2)CC1` (stereo not shown) was -18.2%; that for `COc1cccc2c1Oc1cc([N+](=O)[O-])cc(N(C)C(C)=O)c1C=C2` was -6.53%. As for `CN(C)c1cc(-c2ccc(C#N)cc2)oc(=O)c1Cl`, the “hERG current change (%, negative = inhibition) at 10uM” value is on record as -50.1%. Take `CCn1c2ccc(OC)cc2c2nc3ccccc3nc21`: the “hERG current change (%, negative = inhibition) at 10uM” value is -5.6%. For `O=C(Cn1cc2c(n1)CCCCC2)N1CCc2ccccc21`, the “hERG current change (%, negative = inhibition) at 10uM” value was found to be 13.7%. For `CN(CC(=O)Nc1ccc(F)cc1)C(=O)COC(=O)Cc1cccs1`, the “hERG current change (%, negative = inhibition) at 10uM” value is on record as -16.7%. With `O=C(Nc1ccccc1OC(F)F)c1cccc(S(=O)(=O)N2CCCC2)c1` the figure was -23.6%; with `Cc1cc(N2CCN(c3ccccn3)CC2)n2nc(C)nc2n1`, -51.4%. With `O=C(COC(=O)CNC(=O)c1ccc2c(c1)OCO2)Nc1ncc(Cl)cc1Cl` the figure was -29.4%.

As for `CCOCCCn1c(SCC(=O)NC(C)C)nc2ccccc2c1=O`, the “hERG current change (%, negative = inhibition) at 10uM” value is reported as -23.1%. Turning to `Cc1cc(C)cc(NC(=O)Nc2cccc(S(N)(=O)=O)c2)c1`, the “hERG current change (%, negative = inhibition) at 10uM” value is given as -34%.

Take `O=S(=O)(c1ccccc1F)N1CCN(Cc2cc3c(cc2Br)OCCO3)CC1`: the “hERG current change (%, negative = inhibition) at 10uM” value was found to be 0.385%. On to `COC(=O)C1=C(C)N(Cc2ccco2)C(=O)C1`, for which the “hERG current change (%, negative = inhibition) at 10uM” value stood at 1.28%. On to `O=S(=O)(c1ccccc1C(F)(F)F)N1CCN(S(=O)(=O)c2ccccc2C(F)(F)F)CC1`, for which the “hERG current change (%, negative = inhibition) at 10uM” value is -2.32%. `O=C(NC1CCCN(CCc2ccccc2)C1)c1c[nH]c2ccccc12` (stereo not shown): the “hERG current change (%, negative = inhibition) at 10uM” value is -68.2%. Take `CCSc1nncn1/N=C/c1ccc(OC)c(OC)c1`: the “hERG current change (%, negative = inhibition) at 10uM” value was found to be 0.939%. The value for `COc1ccc(O)c(C(=O)c2cnc3c(c2)c(=O)[nH]c(=O)n3C)c1` was 1.77%. With `O=C(NCc1nc2ccccc2[nH]1)C1=C[C@H](c2ccc3c(c2)OCO3)C[C@H](OCc2ccc(CO)cc2)O1` the figure was -22.4%. The value for `CCOC(=O)c1sc(C)c2c(=O)n(CCCN3CCOCC3)cnc12` was 3.91%.

For `C[C@H](NC(=O)c1nc[nH]c1C(=O)N[C@@H](Cc1ccccc1)C(=O)OC(C)(C)C)C(=O)OC(C)(C)C`, the “hERG current change (%, negative = inhibition) at 10uM” value is -6.8%. With `COc1cccc(N2C(=O)/C(=C/c3ccc(C)o3)C(=O)NC2=S)c1` the figure was 15%; with `COc1ccccc1C(=O)NN(C)C1=NS(=O)(=O)c2ccccc21`, 22.1%; with `Cn1c(SCCN2CCCC2)nnc1C1CCN(S(=O)(=O)c2ccc(F)cc2)CC1`, -2.27%.

Take `COc1cccc(Nc2nc(N)c([N+](=O)[O-])c(NCc3ccco3)n2)c1`: the “hERG current change (%, negative = inhibition) at 10uM” value is -12.8%.

As to `CN(Cc1ccccc1)CC(O)COc1ccc(CNCc2nccn2C)cc1` (stereo not shown), the “hERG current change (%, negative = inhibition) at 10uM” value is on record as -72.5%.

Regarding `CCCCc1c(O)nc(SCC(=O)N2CCCCCC2)[nH]c1=O`, the “hERG current change (%, negative = inhibition) at 10uM” value is recorded as 1.3%. The value for `O=C(CSC1=NS(=O)(=O)c2ccccc2N1)Nc1ccc(F)cc1` was 3.55%; that for `Cc1cccc(/C=C2\Sc3ccc(C(=O)N4CCC(C)CC4)cc3N(C)C2=O)c1` was 0.637%; that for `COc1cccc(-c2cc(C(=O)N3CCCc4ccccc43)no2)c1` was -13.6%.

With `Cc1c(C(=O)Nc2c(C)n(C)n(-c3ccccc3)c2=O)oc2ccccc12`, the “hERG current change (%, negative = inhibition) at 10uM” value is 15.8%. The value for `O=C(COc1cccnc1[N+](=O)[O-])N1CCN(S(=O)(=O)c2ccc3ccccc3c2)CC1` was -25.1%; that for `CCCc1nc2ccccc2n1C(=S)SC` was 12.8%; that for `CC1CCN(c2ccc([N+](=O)[O-])cc2C(=O)NCC2CCCO2)CC1` (stereo not shown) was -8.39%. The value for `CCn1c(/C=C/c2c[nH]c3ccccc23)nc2ccccc2c1=O` was 20.5%; that for `CCCN(C(=O)Cc1nc(N)n[nH]1)C1(C(=O)Nc2ccccc2C)CCCCC1` was 9.86%; that for `CCOC(=O)c1cnc2c(-c3ccccc3OC)c(C)nn2c1C` was 12.6%.
